Source: paper PMC4336329 (PLoS ONE, 2015)
About 2,200 (0.71%) of roughly 310,000 compounds showed an effect of 50% or more. The effect is printed as a negative number. This is one part of the list.

These molecules were tested against human ether-à-go-go-related gene (hERG) potassium channel (human, UniProt Q12809) (assay: primary screen, population patch clamp on CHO cells stably expressing hERG).
human ether-à-go-go-related gene (hERG) potassium channel, sequence (Q12809 whole entry, looked up): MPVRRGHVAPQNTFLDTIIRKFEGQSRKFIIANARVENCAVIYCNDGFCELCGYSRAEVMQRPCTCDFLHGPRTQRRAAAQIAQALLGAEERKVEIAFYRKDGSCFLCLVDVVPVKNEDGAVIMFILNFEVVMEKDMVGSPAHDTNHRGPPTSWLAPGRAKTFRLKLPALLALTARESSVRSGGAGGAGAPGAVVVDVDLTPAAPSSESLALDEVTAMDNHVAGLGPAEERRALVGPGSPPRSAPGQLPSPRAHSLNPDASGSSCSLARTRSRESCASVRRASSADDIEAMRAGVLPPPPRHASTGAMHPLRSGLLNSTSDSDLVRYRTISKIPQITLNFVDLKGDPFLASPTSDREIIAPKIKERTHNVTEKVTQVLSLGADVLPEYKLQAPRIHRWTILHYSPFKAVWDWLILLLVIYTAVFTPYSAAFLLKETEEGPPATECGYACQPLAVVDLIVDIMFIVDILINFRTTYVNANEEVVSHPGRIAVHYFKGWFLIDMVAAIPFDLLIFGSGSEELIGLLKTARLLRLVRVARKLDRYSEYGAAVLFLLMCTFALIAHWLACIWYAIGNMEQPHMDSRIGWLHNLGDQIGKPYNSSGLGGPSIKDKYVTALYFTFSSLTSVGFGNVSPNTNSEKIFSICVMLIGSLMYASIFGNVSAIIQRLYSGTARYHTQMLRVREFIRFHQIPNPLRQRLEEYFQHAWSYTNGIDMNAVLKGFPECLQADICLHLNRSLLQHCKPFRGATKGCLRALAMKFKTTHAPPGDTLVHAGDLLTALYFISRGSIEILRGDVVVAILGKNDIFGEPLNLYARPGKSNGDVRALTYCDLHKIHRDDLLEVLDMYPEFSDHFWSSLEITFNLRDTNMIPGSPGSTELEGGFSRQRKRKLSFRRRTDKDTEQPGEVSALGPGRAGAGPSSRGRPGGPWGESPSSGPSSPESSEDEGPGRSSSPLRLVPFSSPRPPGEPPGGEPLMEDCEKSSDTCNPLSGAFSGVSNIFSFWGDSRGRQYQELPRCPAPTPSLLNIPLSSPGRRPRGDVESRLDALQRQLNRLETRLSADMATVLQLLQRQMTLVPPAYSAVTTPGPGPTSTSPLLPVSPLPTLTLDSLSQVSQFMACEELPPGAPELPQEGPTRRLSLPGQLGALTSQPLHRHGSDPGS

SMILES | hERG current change (%, negative = inhibition) at 1uM [%]
O=C(CN1CCOCC1)Nc1cccc(C(F)(F)F)c1 | 7.21
COc1cc(COc2ccc3c(C)c(CCC(=O)O)c(=O)oc3c2)cc(OC)c1OC | 15.5
CSC1=C(C#N)C(c2ccncc2)C(C(=O)Nc2ccccc2)=C(C)N1 (centres unmarked) | 5.44
COc1ccc2ccccc2c1/C=N\NC(=O)c1ccc(C)s1 | 14.6
O=C1CCC(=O)N1OCCOc1ccc2c(c1)CCC2 | -6.51
CN(C)c1nc(Oc2ccc(=O)n(C)n2)nc(N2CCOCC2)n1 | 5.59
CC12CCC(c3c(C(=O)O)nn(-c4ccc(F)cc4)c31)C2(C)C (centres unmarked) | 6.67
O=C(Oc1ccc[nH]c1=O)c1cccc(Cl)c1 | 8.24
O=C(NC(=S)Nn1cnnc1)c1cccc(Br)c1 | -1.47
COC(=O)c1cc2ccsc2n1CC(=O)N1CCCc2ccccc21 | -4.72
COc1ccc(OC)c(C2=NOC(C(=O)Nc3ccc4c(c3)OCCO4)C2)c1 (centres unmarked) | 12.3
CC(C)(C)n1cnc2cc(NCc3ccccc3O)ccc21 | 2.16
CCN1C(=O)[C@H]2[C@@H](c3ccc(-c4ccc(C(C)=O)cc4)cc3)N[C@@](Cc3ccccc3)(C(=O)OC)[C@H]2C1=O.O=C(O)C(F)(F)F | 12.3
O=C(N1CCOCC1)C1(S(=O)(=O)c2ccccc2)CC=CC1 | 11.9
Cc1nnc(NC(=O)c2ccc(S(=O)(=O)N3CC(C)OC(C)C3)cc2)o1 (centres unmarked) | 3.35
COc1cc(NC(=O)c2cc([N+](=O)[O-])ccc2NC(=O)CNC2CCCCC2)cc(OC)c1 | 15
Cc1ccc(S(=O)(=O)N2CCC(C(=O)OCC(=O)N(CC(C)C)C3CCS(=O)(=O)C3)CC2)cc1C (centres unmarked) | 10.8
COc1ccccc1CC(=O)NCc1nn(-c2ccccc2)nc1C | 13.1
C=CCNC(=O)N1CCCC(N2CCN(c3ccccc3OC)CC2)C1 (centres unmarked) | 9.02
Cc1cc(C)c(Nc2cc(S(=O)(=O)[O-])c(N)c3c2C(=O)c2ccccc2C3=O)c(C)c1.[Na+] | 14.2
Cc1ccc(S(=O)(=O)N2CCN(C(=O)Cn3nc(C)c([N+](=O)[O-])c3C)CC2)cc1 | -2.45
CCOC(=O)c1cnc(-c2ccccc2)nc1Oc1ccccc1 | 7.52

SMILES | hERG current change (%, negative = inhibition) at 1uM [%]
CC(C)Cc1nnc(NC(=O)C2CC(=O)N(c3ccc4c(c3)OCCO4)C2)s1 (centres unmarked) | -3.53
O=C(NCc1cccs1)C1CCN(c2nccs2)CC1 | 3.99
Cc1cc2ccccc2nc1Br | 7.92
OCCC1CN(Cc2cccs2)CCN1Cc1ccccc1 (centres unmarked) | 12.3
CNS(=O)(=O)c1cccc(C(=O)OCC(=O)Nc2ccc(OC)cc2[N+](=O)[O-])c1 | 13.9
C/C(CC(=O)NC1CCCC1)=N\NC(=O)Cc1cccs1 | -8.68
CCC(=O)Nc1ccc(/C=C(\C(C)=O)C(=O)c2ccccc2)cc1 | 11.4
O=C(CN1C(=O)C2C3C=CC(C3)C2C1=O)OCC(=O)c1ccc(Cl)c([N+](=O)[O-])c1 (centres unmarked) | 16.5
CN(Cc1ccccc1)c1oc(COc2ccccc2F)nc1C#N | -4.24
O=C(c1noc2c1CCCC2)N1CCc2c([nH]c3ccccc23)C1c1ccccn1 (centres unmarked) | 2.62
Cc1csc(NC(=O)CSc2ccc(-c3ccc(F)cc3)nn2)n1 | -8.25
O=C(c1cc2nc(-c3ccco3)cc(C(F)(F)F)n2n1)N1CCc2ccccc2C1 | 2.5
Cn1cc([C@@H]2C[C@H]3CN(Cc4cccc(Cl)c4)C(=O)[C@]34CCCN24)c2ccccc21 | -33.2
CCOC(=O)c1sc(N)c(C(=O)OCC)c1C | 12
Nc1ccccc1SCc1csc(-c2ccc(Cl)cc2)n1 | 10.6
Cc1nc2ccc(NC(=O)c3cncc(Br)c3)cc2s1 | 9.66
Cc1ccc2nc3c(cc(C(N)=S)c(=N)n3CCCOC(C)C)c(=O)n2c1 | -65.1
CCn1c(Cc2ccc(OC)cc2)nnc1SCC(=O)NC1CCCCC1 | 16.1
Cc1ccc(N(C)C(=O)N2CCN(S(=O)(=O)c3ccc4ccccc4c3)CC2)cc1 | 0.268
COC(=O)C(NC(C)=O)(Nc1ccc(Br)cn1)C(F)(F)F (centres unmarked) | 6.68
CCC(CC)NC(=O)C1CCN(c2ccc(S(=O)(=O)N3CCOCC3)cc2[N+](=O)[O-])CC1 | 5.49
CN1C2CCC1CC(NC(=O)c1ccc(Cl)cc1)C2 (centres unmarked) | 12.2
